From paper PMC9911399, “Two distinct binding modes provide the RNA-binding protein RbFox with extraordinary sequence specificity”
Positions count from the first letter of the chain named. Some of the results follow.

T1: RBFOX1 RRM (Homo sapiens, UniProt Q9NWB1 109-208)
T1 sequence: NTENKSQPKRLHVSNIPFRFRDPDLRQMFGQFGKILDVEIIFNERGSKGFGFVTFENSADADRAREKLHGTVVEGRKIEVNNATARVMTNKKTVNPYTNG

B1: AGGCUCU (DNA:RNA)
RNA: GGGAGACCGGAAUUCAGAUUGUCCAGGCUCUUUAAAUCCCGUCGUAGCCACCA
DNA 1: CAATCTGAATTCCGGTCTCCC
DNA 2: TGGTGGCTACGACGGGATT
B2: UAGCAAG (DNA:RNA)
RNA: B1 RNA with A25U, G26A, U29A, C30A, U31G
DNA 1: CAATCTGAATTCCGGTCTCCC
DNA 2: TGGTGGCTACGACGGGATT
B3: ACGUUGC (DNA:RNA)
RNA: B1 RNA with G26C, C28U, C30G, U31C
DNA 1: CAATCTGAATTCCGGTCTCCC
DNA 2: TGGTGGCTACGACGGGATT
B4: UAACCUG (DNA:RNA)
RNA: B1 RNA with A25U, G26A, G27A, U29C, C30U, U31G
DNA 1: CAATCTGAATTCCGGTCTCCC
DNA 2: TGGTGGCTACGACGGGATT
B5: GUACCAC (DNA:RNA)
RNA: B1 RNA with A25G, G26U, G27A, U29C, C30A, U31C
DNA 1: CAATCTGAATTCCGGTCTCCC
DNA 2: TGGTGGCTACGACGGGATT
B6: UAGAUUG (DNA:RNA)
RNA: B1 RNA with A25U, G26A, C28A, C30U, U31G
DNA 1: CAATCTGAATTCCGGTCTCCC
DNA 2: TGGTGGCTACGACGGGATT
B7: GUAGCUA (DNA:RNA)
RNA: GGGAGACCGGAAUUCAGAUUGUCCGUAGCUAUUAAAUCCCGUCGUAGCCACCA
DNA 1: CAATCTGAATTCCGGTCTCCC
DNA 2: TGGTGGCTACGACGGGATT
B8: ACCGGAC (DNA:RNA)
RNA: B1 RNA with G26C, G27C, C28G, U29G, C30A, U31C
DNA 1: CAATCTGAATTCCGGTCTCCC
DNA 2: TGGTGGCTACGACGGGATT
B9: GACCGGU (DNA:RNA)
RNA: B1 RNA with A25G, G26A, G27C, U29G, C30G
DNA 1: CAATCTGAATTCCGGTCTCCC
DNA 2: TGGTGGCTACGACGGGATT
B10: AGUCGGU (DNA:RNA)
RNA: B1 RNA with G27U, U29G, C30G
DNA 1: CAATCTGAATTCCGGTCTCCC
DNA 2: TGGTGGCTACGACGGGATT
B11: CCGGUUA (DNA:RNA)
RNA: B7 RNA with G25C, U26C, A27G, C29U
DNA 1: CAATCTGAATTCCGGTCTCCC
DNA 2: TGGTGGCTACGACGGGATT
B12: CCAUUUC (DNA:RNA)
RNA: B7 RNA with G25C, U26C, G28U, C29U, A31C
DNA 1: CAATCTGAATTCCGGTCTCCC
DNA 2: TGGTGGCTACGACGGGATT
B13: CGCCUUC (DNA:RNA)
RNA: B1 RNA with A25C, G27C, C30U, U31C
DNA 1: CAATCTGAATTCCGGTCTCCC
DNA 2: TGGTGGCTACGACGGGATT
B14: UAGCUAU (DNA:RNA)
RNA: B1 RNA with A25U, G26A, C30A
DNA 1: CAATCTGAATTCCGGTCTCCC
DNA 2: TGGTGGCTACGACGGGATT
B15: AACCCUA (DNA:RNA)
RNA: B7 RNA with G25A, U26A, A27C, G28C
DNA 1: CAATCTGAATTCCGGTCTCCC
DNA 2: TGGTGGCTACGACGGGATT
B16: GUCGUAU (DNA:RNA)
RNA: B7 RNA with A27C, C29U, U30A, A31U
DNA 1: CAATCTGAATTCCGGTCTCCC
DNA 2: TGGTGGCTACGACGGGATT
B17: CGAUCAC (DNA:RNA)
RNA: B7 RNA with G25C, U26G, G28U, U30A, A31C
DNA 1: CAATCTGAATTCCGGTCTCCC
DNA 2: TGGTGGCTACGACGGGATT
B18: GGUUUCU (DNA:RNA)
RNA: B1 RNA with A25G, G27U, C28U
DNA 1: CAATCTGAATTCCGGTCTCCC
DNA 2: TGGTGGCTACGACGGGATT
B19: UCUCGAG (DNA:RNA)
RNA: B1 RNA with A25U, G26C, G27U, U29G, C30A, U31G
DNA 1: CAATCTGAATTCCGGTCTCCC
DNA 2: TGGTGGCTACGACGGGATT
B20: UGUAAAA (DNA:RNA)
RNA: B1 RNA with A25U, G27U, C28A, U29A, C30A, U31A
DNA 1: CAATCTGAATTCCGGTCTCCC
DNA 2: TGGTGGCTACGACGGGATT
B21: CUUCUUA (DNA:RNA)
RNA: B7 RNA with G25C, A27U, G28C, C29U
DNA 1: CAATCTGAATTCCGGTCTCCC
DNA 2: TGGTGGCTACGACGGGATT
B22: UGGGUCU (DNA:RNA)
RNA: B1 RNA with A25U, C28G
DNA 1: CAATCTGAATTCCGGTCTCCC
DNA 2: TGGTGGCTACGACGGGATT
B23: GUCGUGU (DNA:RNA)
RNA: B7 RNA with A27C, C29U, U30G, A31U
DNA 1: CAATCTGAATTCCGGTCTCCC
DNA 2: TGGTGGCTACGACGGGATT
B24: GCGGUGA (DNA:RNA)
RNA: B7 RNA with U26C, A27G, C29U, U30G
DNA 1: CAATCTGAATTCCGGTCTCCC
DNA 2: TGGTGGCTACGACGGGATT
B25: UCUGAUG (DNA:RNA)
RNA: B7 RNA with G25U, U26C, A27U, C29A, A31G
DNA 1: CAATCTGAATTCCGGTCTCCC
DNA 2: TGGTGGCTACGACGGGATT
B26: AUUACCG (DNA:RNA)
RNA: B1 RNA with G26U, G27U, C28A, U29C, U31G
DNA 1: CAATCTGAATTCCGGTCTCCC
DNA 2: TGGTGGCTACGACGGGATT
B27: AUUUAUA (DNA:RNA)
RNA: B7 RNA with G25A, A27U, G28U, C29A
DNA 1: CAATCTGAATTCCGGTCTCCC
DNA 2: TGGTGGCTACGACGGGATT
B28: GUCAGUG (DNA:RNA)
RNA: B7 RNA with A27C, G28A, C29G, A31G
DNA 1: CAATCTGAATTCCGGTCTCCC
DNA 2: TGGTGGCTACGACGGGATT
B29: GAACUCU (DNA:RNA)
RNA: B1 RNA with A25G, G26A, G27A
DNA 1: CAATCTGAATTCCGGTCTCCC
DNA 2: TGGTGGCTACGACGGGATT
B30: UAUGGGU (DNA:RNA)
RNA: B1 RNA with A25U, G26A, G27U, C28G, U29G, C30G
DNA 1: CAATCTGAATTCCGGTCTCCC
DNA 2: TGGTGGCTACGACGGGATT
B31: ACUCACC (DNA:RNA)
RNA: B1 RNA with G26C, G27U, U29A, U31C
DNA 1: CAATCTGAATTCCGGTCTCCC
DNA 2: TGGTGGCTACGACGGGATT

molecular target: T1, RBFOX1 RRM; test: EMSA; HiTS-Eq, 1 nM pool, 10 min; buffer printed only for the single-RNA assays: 10 mM Tris pH 7.5, 150 mM NaCl, 3.4 mM EDTA, 0.001% NP-40, 30 C; settings: tags: His6 N-terminal (pET28a); label: 5' 32P
Summary of the method: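 Purified wild-type or mutant RbFox RRM at increasing concentrations was equilibrated with 1 nM of 5′-radiolabelled RNA carrying 7 randomized nucleotides for 10 min in 50 µL. Unbound RNA was separated by 8% native PAGE and sequenced. Relative association constants came from read-count changes of each RNA species compared with the control reaction, normalised to the cognate motif.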

Row | Binder | binding signal
1 | B1 | 0.013 KA relative to UGCAUGU
2 | B2 | 0.0159 KA relative to UGCAUGU
3 | B3 | 0.00964 KA relative to UGCAUGU
4 | B4 | 0.0101 KA relative to UGCAUGU
5 | B5 | 0.00436 KA relative to UGCAUGU
6 | B6 | 0.0223 KA relative to UGCAUGU
7 | B7 | 0.00799 KA relative to UGCAUGU
8 | B8 | 0.011 KA relative to UGCAUGU
9 | B9 | 0.012 KA relative to UGCAUGU
10 | B10 | 0.0126 KA relative to UGCAUGU
11 | B11 | 0.00936 KA relative to UGCAUGU
12 | B12 | 0.00251 KA relative to UGCAUGU
13 | B13 | 0.0116 KA relative to UGCAUGU
14 | B14 | 0.00812 KA relative to UGCAUGU
15 | B15 | 0.00078 KA relative to UGCAUGU
16 | B16 | 0.00822 KA relative to UGCAUGU

Row | Binder | binding signal
17 | B17 | 0.00542 KA relative to UGCAUGU
18 | B18 | 0.00829 KA relative to UGCAUGU
19 | B19 | 0.0135 KA relative to UGCAUGU
20 | B20 | 0.00602 KA relative to UGCAUGU
21 | B21 | 0.00104 KA relative to UGCAUGU
22 | B22 | 0.0375 KA relative to UGCAUGU
23 | B23 | 0.0179 KA relative to UGCAUGU
24 | B24 | 0.0242 KA relative to UGCAUGU
25 | B25 | 0.0204 KA relative to UGCAUGU
26 | B26 | 0.00226 KA relative to UGCAUGU
27 | B27 | 0.00157 KA relative to UGCAUGU
28 | B28 | 0.0134 KA relative to UGCAUGU
29 | B29 | 0.00576 KA relative to UGCAUGU
30 | B30 | 0.00854 KA relative to UGCAUGU
31 | B31 | 0.00156 KA relative to UGCAUGU
